# From publication PMC4336329 (PLoS ONE, 2015)
# The whole screen tested about 310,000 compounds, of which about 14,000 (4.5%) showed an effect of 50% or more. Effects have a minus sign here. Some of the results follow.
# Molecular target: human ether-à-go-go-related gene (hERG) potassium channel (human, UniProt Q12809)
# Experiment: primary screen, population patch clamp on CHO cells stably expressing hERG
# 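Note: peak tail current of the secondary pulse compared with the same well before compound.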
# Sequence of human ether-à-go-go-related gene (hERG) potassium channel (Q12809 whole entry, looked up): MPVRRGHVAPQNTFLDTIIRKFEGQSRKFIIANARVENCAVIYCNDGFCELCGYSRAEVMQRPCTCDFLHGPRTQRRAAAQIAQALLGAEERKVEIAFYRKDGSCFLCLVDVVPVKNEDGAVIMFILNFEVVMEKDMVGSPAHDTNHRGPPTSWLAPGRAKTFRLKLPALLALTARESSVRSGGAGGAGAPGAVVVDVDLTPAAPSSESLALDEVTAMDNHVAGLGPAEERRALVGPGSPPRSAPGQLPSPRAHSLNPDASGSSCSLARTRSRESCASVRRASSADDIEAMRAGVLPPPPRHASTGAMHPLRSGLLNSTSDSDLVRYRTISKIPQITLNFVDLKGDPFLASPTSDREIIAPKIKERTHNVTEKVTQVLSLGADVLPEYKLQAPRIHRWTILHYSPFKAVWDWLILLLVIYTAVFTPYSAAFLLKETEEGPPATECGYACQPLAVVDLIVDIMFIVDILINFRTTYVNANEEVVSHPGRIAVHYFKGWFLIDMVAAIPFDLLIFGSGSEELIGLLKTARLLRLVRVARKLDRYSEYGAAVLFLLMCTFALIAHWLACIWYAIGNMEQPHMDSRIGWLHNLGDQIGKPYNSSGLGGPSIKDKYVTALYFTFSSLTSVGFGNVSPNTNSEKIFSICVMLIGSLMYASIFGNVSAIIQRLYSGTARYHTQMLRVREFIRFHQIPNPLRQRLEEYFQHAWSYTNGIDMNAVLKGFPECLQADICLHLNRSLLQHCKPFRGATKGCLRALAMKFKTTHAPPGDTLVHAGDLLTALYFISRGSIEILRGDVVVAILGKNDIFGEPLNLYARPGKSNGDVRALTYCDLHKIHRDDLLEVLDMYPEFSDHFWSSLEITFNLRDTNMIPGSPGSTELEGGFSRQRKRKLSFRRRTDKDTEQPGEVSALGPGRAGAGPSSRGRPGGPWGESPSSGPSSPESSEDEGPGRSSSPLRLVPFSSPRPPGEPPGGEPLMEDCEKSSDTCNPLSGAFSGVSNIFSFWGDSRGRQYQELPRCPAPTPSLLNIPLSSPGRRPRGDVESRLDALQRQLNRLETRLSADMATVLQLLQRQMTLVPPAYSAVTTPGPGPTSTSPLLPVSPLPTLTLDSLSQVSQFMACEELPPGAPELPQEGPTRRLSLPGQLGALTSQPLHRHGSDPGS
row,Structure (SMILES),"hERG current change (%, negative = inhibition) at 10uM [%]"
1,COc1ccc(CCC(C)NCc2cccc(Br)c2)cc1 (stereo not drawn),-64.6
2,CCC(C)N(C(=O)COC(=O)COc1c(C)cc(C)cc1C)C1CCS(=O)(=O)C1 (stereo not drawn),-3.97
3,COC(=O)c1ccc(COC(=O)CNC(=O)c2ccc(-c3ccccc3)cc2)cc1,3.65
4,CC(C)C(=O)Nc1ccc(C(=O)NNC(=S)NC(=O)c2cccs2)cc1,12.8
5,CCOC(=O)COc1c(OC)cc(Cl)cc1C1Nc2ccccc2C(=O)N1c1cccc(C)c1 (stereo not drawn),-8.45
6,CCc1ccc(CN2CCN(C(=O)Cc3ccccc3)CC2)cc1.O=C(O)C(=O)O,-22.5
7,C=CCNC(=O)c1ccc2nc(-c3ccccc3)c(-c3ccccc3)nc2c1,-15.4
8,COc1ccc(-c2csc(NC(=O)CN3C(=O)C4CCCCC4C3=O)n2)c(OC)c1 (stereo not drawn),2.26
9,CCOc1ccc2nc(SCC(=O)NCc3ccc(S(N)(=O)=O)cc3)[nH]c2c1,31.8
10,O=C(CN1C(=O)CCC1=O)NNc1ccc2ccccc2c1,9.19
11,CC(=O)OCc1c(C(F)(F)F)nn(C)c1Sc1ccccc1,-21.1
12,CCCc1nc(N2CCCC2)c(C#N)c2c1CCCC2,4.06
13,O=C(NCCN1CCN(c2ccccc2)CC1)C1CCCN(S(=O)(=O)c2cnc[nH]2)C1 (stereo not drawn),6.71
14,CCOC(=O)c1nnn(-c2nonc2-n2cccc2)c1CN1CCC(C)CC1,0.67
15,CC1=C(C(=O)Nc2cccc(F)c2)C(c2ccsc2)C2=C(CC(C)(C)CC2=O)N1 (stereo not drawn),-19.7
16,Cc1[nH]n(C(N)=S)c(=O)c1N=Nc1cc(C(F)(F)F)ccc1Cl,21.4
17,Cc1ccc(C(CC(=O)c2ccc(Cl)cc2)C(=O)O)cc1 (stereo not drawn),8
18,O=C(CCN1C(=O)c2ccc(Br)cc2C1=O)NC1CCCCC1,-9.86
19,Cc1ccc(CC(=O)N(C)CC(=O)N(CC(C)C)c2c(N)n(CC(C)C)c(=O)[nH]c2=O)cc1C,-2.54
20,Cc1onc(-c2c(F)cccc2Cl)c1C(=O)NC(=S)NC1CCSC1=O (stereo not drawn),5.43
21,O=C(NCCCN1CCCCC1)C1CCN(S(=O)(=O)N2CCC3(CC2)OCCO3)CC1,24.9

row,Structure (SMILES),"hERG current change (%, negative = inhibition) at 10uM [%]"
1,CC(NC(=O)c1cc2ccccc2oc1=O)c1ccc(O)cc1 (stereo not drawn),2.49
2,CCc1ccc(N(C(=O)c2csnn2)C(C(=O)NCc2ccccc2)c2ccco2)cc1 (stereo not drawn),-24.9
3,COc1ccc(CN2CCNC(=O)C2CC(=O)NC2CC(C)(C)CC(C)(C)C2)cc1OC (stereo not drawn),3.28
4,FC(F)(F)c1cccc(-n2nnnc2C2(N3CCOCC3)CCCCC2)c1,-18
5,Cn1nc(-c2ccccc2)c(CN2CCN(c3ncccn3)CC2)c1Cl,-2.27
6,Cc1ccccc1C(=O)Nc1c(C(=O)N2CCCC2)cnn1-c1ccccc1,4.93
7,CCCCN(CC)CCNC(=O)c1cc2c(=O)[nH]c3ccccc3c2n1C,-9.95
8,COc1cc(C(=O)NNC2=CC(=O)CC(C)(C)C2)cc(OC)c1OC,0.946
9,O=C(c1ccc(C(F)(F)F)cc1)n1ccc(-c2cccs2)n1,17.6
10,CCOCC(=O)N1CCN(c2ccc([N+](=O)[O-])cc2)CC1,-71.8
11,CCN1C(=O)C2(C(C#N)=C(N)Oc3c2c(C)nn3-c2ccccc2)c2ccccc21 (stereo not drawn),-21.3
12,C/C(=N\NC(=O)c1ccccc1)c1c(O)n(C2CCCCC2)c(=O)[nH]c1=O,16.3
13,COc1ccc(CN2CCSc3sccc3C2=O)cc1,-29.3
14,CCCOc1ccc(C(=O)Nc2ccc(S(=O)(=O)NC3=NCCCCC3)cc2)cc1,10.2
15,Cc1ccccc1OCC(=O)OCC(=O)c1ccc(OC(=O)c2ccccc2)cc1,-7.14
16,COC(=O)c1ccc(NC(=O)CCOc2ccccc2)cc1,6.91
17,COCCCNC(=O)CN1C(=O)COc2ccc(S(=O)(=O)N3CC(C)CC(C)C3)cc21 (stereo not drawn),9.86
18,COCCNC(=O)C(c1cccnc1)N(Cc1ccc(C)cc1)C(=O)Cn1nnc2ccccc21 (stereo not drawn),13.3
19,CN1CCN(C(=O)c2cc(Cl)cc(Cl)c2)CC1,7.3
20,COc1ccc(-c2csc(N(CCc3ccc(OC)c(OC)c3)C(=O)COc3ccccc3)n2)cc1,25
21,COc1cc(NC(=O)C2CCC(CNc3c(N4CCCCC4)c(=O)c3=O)CC2)cc(OC)c1 (stereo not drawn),11.3

row,Structure (SMILES),"hERG current change (%, negative = inhibition) at 10uM [%]"
1,COc1ccc(CCNC(=O)CCn2c(=O)oc3ccccc32)cc1,-20.5
2,COc1ccc(N(C(=O)CNC(=O)c2cccs2)C(C(=O)NCC2CCCO2)c2ccccc2)cc1 (stereo not drawn),14.7
3,COC(=O)c1nn(-c2c(C)n(C)n(-c3ccccc3)c2=O)cc1O,5.84
4,FC(F)(F)c1ccccc1CNCc1ccncc1,4.43
5,Cc1ccc(-c2cc(C(=O)NC3=NCCS3)c3cc(Br)ccc3n2)o1,6.43
6,Cc1ccc(S(=O)(=O)/N=C(/NC(=S)Nc2ccccc2)c2ccccc2)cc1,6.65
7,COc1cccc(NC(=O)C2CC(=O)N=C(N)S2)c1 (stereo not drawn),9.3
8,CCC1(C)CC(CCNCc2ccc(N(C)C)cc2)(c2ccc(F)cc2)CCO1 (stereo not drawn),-8.58
9,CNC(=O)c1ccc(Nc2nc(-c3ccccc3)nc3ccccc23)cc1,15.9
10,CCn1c(C)nc2cc(C(=O)NNS(=O)(=O)c3cc(Br)ccc3Br)ccc21,-11.9
11,Cn1cc(CNCc2cn[nH]c2-c2ccc(F)cc2)c(-c2ccc3c(c2)OCCO3)n1,-21.6
12,Cc1ccc(NC(=O)C2=C(c3ccccc3)S(=O)(=O)CCS2(=O)=O)cc1,4.9
13,CCCOc1ccc(Cn2c(C)nc([N+](=O)[O-])c2SCC(O)COC)cc1[N+](=O)[O-] (stereo not drawn),-66
14,COCCN1C(=O)CS/C1=C(/C#N)C(=O)NCc1ccco1,-7.92
15,CCc1nnc(NC(=O)CSc2nnc(Cc3cc(=O)[nH]c(=O)[nH]3)n2-c2ccc(OC)cc2)s1,-13.6
16,O=C1CC(Nc2ccc(N3CCOCC3)cc2)C(=O)N1CCc1ccccc1 (stereo not drawn),6.3
17,CCO[C@@H]1OC(C(=O)N2CCOCC2)=C[C@H](c2coc3ccccc3c2=O)[C@H]1CCCO,5.99
18,O=C1/C(=C/c2ccc([N+](=O)[O-])cc2)C=C(c2ccccc2)N1c1ccccc1,-4.89
19,OCCNc1ncnc2c1sc1nc(N3CCOCC3)c3c(c12)CCC3,-25.6
20,COc1ccc2nc(NC(=O)c3ccccc3[N+](=O)[O-])sc2c1,-3.81
21,O=C(c1ccccc1O)N1CCOCC1,3.51

row,Structure (SMILES),"hERG current change (%, negative = inhibition) at 10uM [%]"
1,COc1cccc(-n2c(SCC(=O)Nc3ccc4c(c3)CCC4)nc3ccccc3c2=O)c1,10.4
2,CC(Oc1ccc2ccc(=O)oc2c1)C(=O)NC1CC(C)(C)NC(C)(C)C1 (stereo not drawn),18.2
3,COC(=O)c1ccc(C2/C(=C(\O)c3cccc(OC)c3)C(=O)C(=O)N2CCCN2CCOCC2)cc1 (stereo not drawn),16.5
4,CC(C)(C)c1ccc(S(=O)(=O)CC(O)CSc2nc3c(cc2C#N)CCCC3)cc1 (stereo not drawn),-9.25
5,c1ccc(-n2ncc3c(N4CCCC4)ncnc32)cc1,-8.17
6,Cc1c(C(=O)N2CCCCC2)c(S(=O)(=O)N2CCN(c3ccc(Cl)cc3)CC2)c(C)n1C,-55.7
7,CCOC(=O)CSc1c(-c2ccccc2)c2cc(Cl)ccc2[nH]c1=O,1.55
8,Cc1ccc(N2C(=O)c3ccc(C(=O)N4CCN(c5ccccc5F)CC4)cc3C2=O)cc1,-15.8
9,COc1ccc2[nH]cc(CCNC(=O)Cc3ccc(Cl)cc3)c2c1,2.05
10,Cc1sc2nc(Cc3ccccc3)[nH]c(=O)c2c1-c1ccccc1,4.57
11,COc1ccc(CCNC(=O)Nc2ccc([N+](=O)[O-])cc2)cc1OC,-20.4
12,Cc1nc2c3cnn(-c4ccc(C)c(C)c4)c3ncn2n1,-7.97
13,COC(=O)c1ccc(OCC(O)CN2C(=O)c3ccccc3S2(=O)=O)cc1 (stereo not drawn),0.999
14,COCCCNC(=O)CN1C(=O)COc2ccc(S(=O)(=O)N3CCOCC3)cc21,9.09
15,COc1ccc(S(=O)(=O)N(C)C)cc1NC(=O)CSC(C)C(=O)Nc1cc(C)on1 (stereo not drawn),-3.57
16,CCn1c(CNc2ccc(Cl)cc2)nnc1SCc1ccc(C)cc1,-19.4
17,Cc1cccc(NC(=S)NNC(=O)c2ccc(O)cc2O)c1C,29.2
18,CNC(=O)c1ccc(Nc2nnc(-c3ccc(C(N)=O)cc3)c3ccccc23)cc1,16.5
19,COc1ccc(CN2CNc3c(c(=O)n(C)c(=O)n3C)C2)cc1,8.8
20,COc1ccc(CC(=O)Nc2ccc(F)c(Cl)c2)cc1S(=O)(=O)N1CCOCC1,-46.1
21,COc1ccc(C(=O)OCC(=O)NCc2ccco2)cc1OC,14
